# Laboratory results: the supplement of paper PMC9135407
# Values joined by “and” are separate entries in the source; they are usually repeats but may differ in a detail not shown here. Equal values may be shown once. Where a name gives a salt, the structure may show the parent alone. The whole screen tested about 5,800 compounds, of which about 620 (11%) showed activity.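 The calls were made as follows: active = score above a cut-off or among the top three wells of a plate; in these data no inactive exceeds 0.85.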 This is a selection; strong and weak results do not stand in their true shares.
# Tested on: primary human hepatic stellate cells (donor 1)
# Test: scaled lipid accumulation score (0 = DMSO-like, 1 = nortriptyline-like); higher = stronger HSC inactivation (lipid re-accumulation), active = hit call of the paper
# Settings: 48 h
# [1] = library stock concentration: 3.33 mM
# [2] = library stock concentration: 10 mM
# [3] = library stock concentration: 80 uM
# [4] = library stock concentration: 1 mM
# [5] = library stock concentration: 400 uM
# [6] = library stock concentration: 2 mM
smiles,measurement,setting,value
CC[C@H](NC(=O)[C@H](C)NC)C(=O)N1C[C@@H](O)C[C@H]1Cc1c(-c2[nH]c3cc(F)ccc3c2C[C@@H]2C[C@H](O)CN2C(=O)[C@H](CC)NC(=O)[C@H](C)NC)[nH]c2cc(F)ccc12 [Birinapant],scaled lipid accumulation score,[1],inactive: ≤ 0
same,scaled lipid accumulation score,[2],inactive: ≤ -0.001
CC(C)N(CC[C@H](c1ccccc1)c1cc(CO)ccc1O)C(C)C,scaled lipid accumulation score,[1],inactive: 0.012
same,scaled lipid accumulation score,[2],inactive: ≤ 0
COC(=O)N/N=C/c1c[n+]([O-])c2ccccc2[n+]1[O-] [Carbadox],scaled lipid accumulation score,library stock concentration: 7.6 mM,inactive: 0.074 and inactive: ≤ 0
same,scaled lipid accumulation score,[2],inactive: 0.05
CN1CCN(c2nc3cc(C(F)(F)F)ccc3n3cccc23)CC1.O=C(O)/C=C\C(=O)O,scaled lipid accumulation score,[2],active: 0.974
CN(C(=O)CN(CCO)CC(=O)N(C)C(C)(C)Cc1ccccc1)C(C)(C)Cc1ccccc1 [Oxethazaine],scaled lipid accumulation score,,inactive: 0.207
same,scaled lipid accumulation score,[2],inactive: ≤ -0.027
Cc1cc(C)nc(NS(=O)(=O)c2ccc(N)cc2)n1 [Sulfamethazine sodium salt],scaled lipid accumulation score,,inactive: ≤ 0
Cc1cc(C)nc(NS(=O)(=O)c2ccc(N)cc2)n1 [Sulfamethazine],scaled lipid accumulation score,[1],inactive: ≤ 0
same,scaled lipid accumulation score,library stock concentration: 7.2 mM,inactive: ≤ 0
same,scaled lipid accumulation score,[2],inactive: ≤ -0.001 and inactive: ≤ 0
CC1(C)O[C@@H]2C[C@H]3[C@@H]4C[C@H](F)C5=CC(=O)C=C[C@]5(C)[C@@]4(F)[C@@H](O)C[C@]3(C)[C@]2(C(=O)CO)O1 [Fluocinolone acetonide],scaled lipid accumulation score,library stock concentration: 4.4 mM,inactive: 0.002 and inactive: 0.008
CC1(C)O[C@@H]2C[C@H]3[C@@H]4C[C@H](F)C5=CC(=O)C=C[C@]5(C)[C@@]4(F)[C@@H](O)C[C@]3(C)[C@]2(C(=O)CO)O1 [Fluocinolone Acetonide],scaled lipid accumulation score,[1],inactive: ≤ 0
same,scaled lipid accumulation score,[2],inactive: ≤ 0
CCCCCCCC/C=C\CCCCCCCC(=O)O.NCCO,scaled lipid accumulation score,[2],inactive: 0.028
CC(C)=CCc1c2c(c3occ(-c4ccc(O)c(O)c4)c(=O)c3c1O)C=CC(C)(C)O2 [Pomiferin],scaled lipid accumulation score,[2],inactive: 0.384
COc1cc(NS(=O)(=O)c2ccc(N)cc2)ncn1 [Sulfamonomethoxine],scaled lipid accumulation score,,inactive: ≤ 0
same,scaled lipid accumulation score,library stock concentration: 7.1 mM,inactive: ≤ 0
same,scaled lipid accumulation score,[2],inactive: ≤ 0
Cc1nc(C(=O)NCC(=O)O)c(O)c2ccc(Oc3ccccc3)cc12,scaled lipid accumulation score,[1],inactive: ≤ 0
same,scaled lipid accumulation score,[2],inactive: ≤ 0
C=C1C(=O)OC2CC1C(OC(C)=O)C/C(C)=C/CC/C(C)=C/CC[C@]2(C)O (stereo not given in full) [Crassin acetate],scaled lipid accumulation score,[2],active: 1.04
O=C1NC(=O)C(c2cnc3ccccn23)=C1c1cn2c3c(cc(F)cc13)CN(C(=O)N1CCCCC1)CC2,scaled lipid accumulation score,[3],active: 0.956
same,scaled lipid accumulation score,[2],active: 0.857
COc1cccc2c1C(=O)c1c(O)c3c(c(O)c1C2=O)C[C@@](O)(C(=O)CO)C[C@@H]3O[C@H]1C[C@H](N)[C@H](O[C@@H]2CCCCO2)[C@H](C)O1 [Pirarubicin],scaled lipid accumulation score,[1],inactive: 0.282
same,scaled lipid accumulation score,[2],inactive: 0.25
O=C(O)CCC/C=C/C[C@@H]1[C@@H](CC[C@@H](O)CCc2ccccc2)[C@H](O)C[C@@H]1O [5-trans Latanoprost (free acid)],scaled lipid accumulation score,[4],inactive: ≤ 0
CCCCCCCCCCCCCCC[C@@H](O)[C@H](CO)NC(=O)CCCCCCC [C8 Dihydroceramide],scaled lipid accumulation score,[4],inactive: ≤ -0.021
COc1cc(COc2cc(N)c(Cl)cc2C(=O)CCC2CCN(CCNS(C)(=O)=O)CC2)cc(OC)c1.Cl,scaled lipid accumulation score,[2],active: 1.06
CCCOc1ccccc1-c1nc2[nH]nnc2c(=O)[nH]1 [Zaprinast],scaled lipid accumulation score,,inactive: 0.03
same,scaled lipid accumulation score,[2],inactive: ≤ 0
same,scaled lipid accumulation score,library stock concentration: 18.4 mM,inactive: ≤ -0.021
CCCCCCNC(=O)n1cc(F)c(=O)[nH]c1=O [Carmofur],scaled lipid accumulation score,[1],inactive: ≤ 0
same,scaled lipid accumulation score,[2],inactive: ≤ 0 and inactive: 0.276
CS(=O)(=O)O.N=C(NC(=O)c1nc(Cl)c(N)nc1N)Nc1ccccc1 [Phenamil methanesulfonate],scaled lipid accumulation score,[2],active: 1.15
CC(C)=CCC1=C(O)C(=O)c2ccccc2C1=O [Lapachol],scaled lipid accumulation score,[2],inactive: ≤ 0
COc1cc2ncnc(Nc3cccc(Cl)c3)c2cc1OC [AG-1478 (Tyrphostin AG-1478)],scaled lipid accumulation score,[2],active: 1.07
CCN(CC)CC#CCOC(=O)C(O)(c1ccccc1)C1CCCCC1.Cl (stereo not given) [Oxybutynin Chloride],scaled lipid accumulation score,[2],active: 0.862
Cl.N/C(=N\C(=O)c1nc(Cl)c(N)nc1N)NCc1ccc(Cl)cc1Cl,scaled lipid accumulation score,library stock concentration: 11.8 mM,active: 0.876
CCC1(O)CC2CN(CCc3c([nH]c4ccccc34)[C@@](C(=O)OC)(c3cc4c(cc3OC)N(C=O)C3[C@]45CCN4CC=C[C@@](CC)([C@@H](OC(C)=O)[C@]3(O)C(=O)OC)[C@H]45)C2)C1.O=S(=O)(O)O (stereo not given in full) [Vincristine sulfate],scaled lipid accumulation score,[2],active: 0.897
Nc1nc(=O)n([C@@H]2CS[C@H](CO)O2)cc1F [Emtricitabine],scaled lipid accumulation score,[1],inactive: 0.015
same,scaled lipid accumulation score,library stock concentration: 8.1 mM,inactive: ≤ -0.006
same,scaled lipid accumulation score,[2],inactive: ≤ 0
Cl.O=S(=O)(c1cccc2c(Cl)cccc12)N1CCCNCC1,scaled lipid accumulation score,[2],active: 0.935
COc1ccc(Cl)cc1C(=O)NCCc1ccc(S(=O)(=O)NC(=O)NC2CCCCC2)cc1 [Glybenclamide],scaled lipid accumulation score,[2],inactive: ≤ -0.07
COc1ccc(Cl)cc1C(=O)NCCc1ccc(S(=O)(=O)NC(=O)NC2CCCCC2)cc1 [Glyburide],scaled lipid accumulation score,[1],inactive: ≤ 0
same,scaled lipid accumulation score,library stock concentration: 4 mM,inactive: ≤ -0.006 and inactive: ≤ 0
same,scaled lipid accumulation score,[2],inactive: ≤ 0 and inactive: 0.016
COc1ccc(Cl)cc1C(=O)NCCc1ccc(S(=O)(=O)NC(=O)NC2CCCCC2)cc1 [Glibenclamide],scaled lipid accumulation score,,inactive: ≤ 0
same,scaled lipid accumulation score,[2],inactive: 0.007
CC#C[C@]1(O)CC[C@H]2[C@@H]3CCC4=CC(=O)CCC4=C3[C@@H](c3ccc(N(C)C)cc3)C[C@@]21C,scaled lipid accumulation score,[2],inactive: ≤ 0
CC#C[C@]1(O)CC[C@H]2[C@@H]3CCC4=CC(=O)CCC4=C3[C@@H](c3ccc(N(C)C)cc3)C[C@@]21C [Mifepristone],scaled lipid accumulation score,,inactive: 0.045
same,scaled lipid accumulation score,[4],inactive: 0.034
same,scaled lipid accumulation score,[1],inactive: ≤ 0
same,scaled lipid accumulation score,library stock concentration: 4.7 mM,inactive: ≤ 0
same,scaled lipid accumulation score,[2],inactive: ≤ 0 and inactive: 0.093 and inactive: ≤ -0.006
"COc1cc(SC)ccc1C(=O)N1CCC(Cc2ccccc2)CC1 [p38 MAP Kinase Inhibitor VI, JX401]",scaled lipid accumulation score,[1],inactive: ≤ 0
COc1cc(SC)ccc1C(=O)N1CCC(Cc2ccccc2)CC1,scaled lipid accumulation score,[2],inactive: 0.484 and inactive: ≤ -0.001
"CC(C)(C)c1cc(O)c(C(C)(C)C)cc1O [2,5-Ditertbutylhydroquinone]",scaled lipid accumulation score,library stock concentration: 22.5 mM,inactive: 0.463
CC(C)c1ccccc1S(=O)(=O)c1cc(N)c2ncccc2c1[N+](=O)[O-],scaled lipid accumulation score,[2],inactive: 0.26
Cc1ccc(S(=O)(=O)Nc2nc3ccccc3nc2Nc2ccc3nsnc3c2)cc1,scaled lipid accumulation score,[3],inactive: ≤ -0.009
same,scaled lipid accumulation score,[5],inactive: ≤ -0.009
same,scaled lipid accumulation score,[6],inactive: ≤ -0.009
same,scaled lipid accumulation score,[1],inactive: ≤ 0
same,scaled lipid accumulation score,[2],inactive: ≤ 0 and inactive: ≤ -0.009
N#C/C(=C1/SC[C@@H](c2ccc(Cl)cc2Cl)S1)n1ccnc1 [Luliconazole],scaled lipid accumulation score,[1],inactive: ≤ 0
same,scaled lipid accumulation score,[2],inactive: ≤ -0.001
NC(N)=N[C@@H](CCC(=O)O)C(=O)O [.alpha.-Guanidinoglutaric Acid],scaled lipid accumulation score,[4],inactive: ≤ 0
NC(N)=N[C@@H](CCC(=O)O)C(=O)O [alpha-Guanidinoglutaric acid],scaled lipid accumulation score,[2],inactive: ≤ -0.007
COc1cc(N2CCN(C)CC2)ccc1Nc1ncc2c(n1)N(C)c1ccccc1C(=O)N2C,scaled lipid accumulation score,[3],inactive: 0.087
same,scaled lipid accumulation score,[5],inactive: 0.062
same,scaled lipid accumulation score,[6],inactive: 0.241
same,scaled lipid accumulation score,[2],inactive: 0.703
C[N+](C)(C)CC(O)CC(=O)[O-] (stereo not given) [Carnitine hydrochloride],scaled lipid accumulation score,[2],inactive: ≤ 0
CCCCC[C@H](O)/C=C/[C@H]1C(=O)C=C[C@@H]1C/C=C\CCCC(=O)O [Prostaglandin J2],scaled lipid accumulation score,[4],inactive: ≤ 0 and inactive: ≤ -0.021
O=C1O[C@H]([C@@H](O)CO)C([O-])=C1O.[Na+] [Sodium ascorbate],scaled lipid accumulation score,[1],inactive: ≤ 0
same,scaled lipid accumulation score,[2],inactive: ≤ -0.001
Clc1ccc2nsnc2c1NC1=NCCN1 [Tizanidine HCl],scaled lipid accumulation score,[1],inactive: ≤ 0
same,scaled lipid accumulation score,library stock concentration: 7.9 mM,inactive: 0.048
same,scaled lipid accumulation score,[2],inactive: 0.029
Clc1ccc2nsnc2c1NC1=NCCN1 [Tizanidine hydrochloride],scaled lipid accumulation score,[2],inactive: ≤ 0 and inactive: 0.009
"Cc1cc(Nc2cc(N3CCN(C)CC3)nc(Sc3ccc(NC(=O)C4CC4)cc3)n2)n[nH]1 [Tozasertib (VX-680, MK-0457) (2 mM)]",scaled lipid accumulation score,[6],inactive: ≤ -0.005
"Cc1cc(Nc2cc(N3CCN(C)CC3)nc(Sc3ccc(NC(=O)C4CC4)cc3)n2)n[nH]1 [Tozasertib (VX-680, MK-0457) (10 mM)]",scaled lipid accumulation score,[2],inactive: 0.456
"Cc1cc(Nc2cc(N3CCN(C)CC3)nc(Sc3ccc(NC(=O)C4CC4)cc3)n2)n[nH]1 [Tozasertib (VX-680, MK-0457) (0.4 mM)]",scaled lipid accumulation score,[5],inactive: ≤ -0.005
Cc1cc(Nc2cc(N3CCN(C)CC3)nc(Sc3ccc(NC(=O)C4CC4)cc3)n2)n[nH]1,scaled lipid accumulation score,[3],inactive: 0.003
same,scaled lipid accumulation score,[5],inactive: 0.063
same,scaled lipid accumulation score,[6],inactive: 0.248
same,scaled lipid accumulation score,[2],inactive: 0.47
"Cc1cc(Nc2cc(N3CCN(C)CC3)nc(Sc3ccc(NC(=O)C4CC4)cc3)n2)n[nH]1 [VX-680 (Tozasertib, MK-0457)]",scaled lipid accumulation score,[1],inactive: 0.193
same,scaled lipid accumulation score,[2],inactive: 0.038
CC(C)Oc1ccc2c(=O)c(-c3ccccc3)coc2c1,scaled lipid accumulation score,[2],inactive: 0.264
CC(C)Oc1ccc2c(=O)c(-c3ccccc3)coc2c1 [Ipriflavone (Osteofix)],scaled lipid accumulation score,[1],inactive: 0.039
same,scaled lipid accumulation score,[2],inactive: ≤ 0
